From PubChem BioAssay (NCATS)
This list was built around the results that the source calls inconclusive (neither active nor inactive); the mix of calls is not that of the screen. For part of these data: Potencies of inconclusive entries are doubtful fits and often do not repeat. For part of these data: “Side channel” marks fits to a control or component signal instead of the main read-out. Activity calls are given as the source filed them. Unless noted, calls come from the whole dose curve; as a rule, active = well fitted curve in the direction sought with a large enough effect; inconclusive = small, poorly fitted or top-dose-only effect, or another doubt; inactive = no such curve, though single readings can be large; an effect the other way counts as inactive or inconclusive.

Tests used:
[1] = qHTS Assay for Identification of Small Molecule Antagonists for NFkB Signaling Pathway (AID 895; active = well fitted inhibition curve with a large enough effect in the signal ratio, with a control signal flat, not every such curve was filed as active; inconclusive = small, poorly fitted or top-dose-only effect, or effect the other way, or a change in a side signal; the % refers to the signal ratio); conditions: NFkB beta-lactamase reporter cells, FRET ratio 460/530; activity change, negative = inhibition: at 38.3 µM (top of the series) unless noted
Method in brief: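 Beta-lactamase reporter read-out (460 and 530 nm emission ratio, 405 nm excitation, 2 hrs substrate loading RT) after 5 hr stimulation with 10 pM TNF alpha in compound-treated NFkB-bla ME-180 cells in low-serum medium.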

[2] = qHTS Assay for Identification of Small Molecule Agonists for Hypoxia Response Element Signaling Pathway (AID 914; active = well fitted activation curve with a large enough effect in the signal ratio, with a control signal flat, not every such curve was filed as active; inconclusive = small, poorly fitted or top-dose-only effect, or effect the other way, or a change in a side signal; the % refers to the signal ratio); conditions: ME-180 (cervical carcinoma) HRE-bla reporter, beta-lactamase ratio, CoCl2, 17 h; activation: active compounds read high
Method in brief: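 Read-out: CCF4 FRET ratio of 460nm to 530nm emission (excitation 405nm) after 2.5 hours at room temperature, taken from HRE-bla ME-180 cells that had been exposed to compound and EC50 CoCl2 for 17 hours.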

[3] = qHTS Assay for Identification of Small Molecule Agonists for Thrombopoietin (TPO) Signaling Pathway (AID 917)
Method in brief: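 Murine Ba/F3 cells stably expressing human TPO receptor and a Glycoprotein IIb promoter–luciferase reporter were IL-3-starved overnight, then treated with compounds plus TPO (26 pM final, its EC50) for 24 hrs at 37 C; luminescence was read.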

[4] = qHTS Assay for Identification of Small Molecule Antagonists for Thrombopoietin (TPO) Signaling Pathway (AID 918); conditions: TPO-dependent cell signaling reporter, antagonist mode; activity change, negative = inhibition: at 38.5 µM (top of the series); note: nearly all actives have a fitted effect of over 60% in size
Method in brief: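 Murine Ba/F3 cells stably expressing human TPO receptor and a Glycoprotein IIb promoter–luciferase reporter were IL-3-starved overnight, treated with compounds plus TPO (26 pM final, its EC50) for 24 hrs at 37 C, then read by luminescence.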

[5] = target: Endonuclease 4 (Escherichia coli (strain K12)) (UniProt P0A6C1); test: Counterscreen for APE1 Inhibitors: qHTS Validation Assay for Inhibitors of Endonuclease IV (AID 1708)
Method in brief: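 Enzymatic AP-site incision assay using a double-stranded THF substrate labelled with TAMRA and BHQ-2; released fluorescence signals activity. Enzyme 2 nM, substrate 50 nM, 15 min compound preincubation.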

[6] = qHTS for differential inhibitors of proliferation of Plasmodium falciparum line 7G8 (AID 1815);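 note: parasite growth measured after three days of incubation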
[7] = qHTS for differential inhibitors of proliferation of Plasmodium falciparum line W2 (AID 1883); conditions: Potency: Plasmodium falciparum W2 proliferation inhibition;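 note: parasites grown with compound for 72 h before lysis and staining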
[8] = qHTS Assay for Modulators of Human Peripheral Myelin Protein 22 (PMP22) Expression/Activity (AID 1967; active = well fitted curve in the direction sought with a large enough effect in the signal ratio; inconclusive = small, poorly fitted or top-dose-only effect, or effect the other way, or a change in a side signal; inactive = no such curve, though single readings can be large or run the other way; the % refers to the signal ratio); conditions: Cell-based PMP22 reporter, dual-color luciferase ratio, mouse Pmp22 promoter in mouse Schwann cells; series mostly up to 115 µM
Method in brief: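 MSC80 mouse Schwann cells stably carrying Pmp22 promoter–green click beetle luciferase plus EF-alpha–red luciferase control were dosed for 24h at 37 °C. Dual-colour luminescence was filter-overlap corrected; %Activity came from green/red ratio versus untreated cells.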

[9] = target: Ferritin light chain (Equus caballus) (UniProt P02791); test: qHTS Validation Assay for Identification of Novel General Anesthetics (AID 2323)
Method in brief: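 Competitive displacement of profluorescent 1-aminoanthracene (1-AMA, 50% saturated solution in PBS) from 10 uM horse-spleen apoferritin. Compounds incubated 10 min at room temperature; fluorescence read at 380 nm excitation/535 nm emission, normalized to free 1-AMA and complex, fitted with four-parameter Hill equation.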

[10] = target: RecQ-like DNA helicase BLM (Homo sapiens) (UniProt P54132); test: qHTS Validation Assay for Inhibitors of Bloom's syndrome helicase (BLM) (AID 2364)
Method in brief: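 Forked 20-bp duplex substrate (200 nM, TAMRA/BHQ-2) plus 2 mM ATP added after 15 min compound preincubation with 50 nM enzyme, pH 8.0, poly(dI-dC) 2.5 ug/ml. Strand separation followed by fluorescence (525/598 nm) over 2 h, normalized to enzyme-free and DMSO controls.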

[11] = Cytometric Cell-Based qHTS for Inhibitors of the mTORC1 Signaling Pathway in MEF (Tsc2-/-, p53-/-) Cells (AID 2660)
Method in brief: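 Immunofluorescence qHTS of rpS6 Ser235/236 phosphorylation: MEFs (Tsc2-/-, p53-/-) treated 24 h, 37 C, in DMEM + 10% FBS. Alexa-488 signal normalized to PI count, referenced to rapamycin (7.5 nM) and DMSO; PI cell number recorded for viability.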

[12] = High Content Imaging Cell-Based qHTS for Inhibitors of the mTORC1 Signaling Pathway in MEF (Tsc2-/-, p53-/-) Cells (AID 2666);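 note: percent of cells scored positive for phospho-rpS6 Ser235/236 immunostaining by imaging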
Method in brief: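 Cells were plated, dosed with compound after 24 hrs, and incubated another 24 hrs at 37 degree Celsius. Fixed cells were immunostained for phospho-rpS6 Ser235/236 and counterstained, and the normalized signal was scored as % active cells against rapamycin and DMSO controls.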

[13] = High Content Imaging Cell-Based qHTS for Inhibitors of the mTORC1 Signaling Pathway in MEF Cells (AID 2667)
Method in brief: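 Immunofluorescence for rpS6 phosphorylation in MEFs of Tsc2-/-, p53-/- background rescued with WT Tsc2. Compound exposure lasted 24 hrs. Inhibition was scored against rapamycin-treated control wells.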

[14] = Cytometry Cell-Based qHTS for Inhibitors of the mTORC1 Signaling Pathway in MEF cells (AID 2668)
Method in brief: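 WT MEFs (Tsc2-/-, p53-/- stably re-expressing WT Tsc2) in DMEM + 10% FBS received compounds 24 hrs after plating, for 24 hrs at 37 degree Celsius. Fixed cells stained with Alexa-488 anti-phospho-rpS6 Ser235/236 and propidium iodide; laser-scanning cytometry read-out.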

[15] = Validation screen for inhibitors of Lassa infection (AID 463096; calls by dose curve)
[16] = Validation screen for small molecules that induce DNA re-replication in MCF 10A normal breast cells (AID 463097); note: nearly all actives have a fitted effect of over 60% in size
Method in brief: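 Readout: Hoechst nuclear fluorescence intensity, 405 ex / 500-530 em, by scanning plate imager; re-replication scored as increase in nuclei with elevated DNA content. Cells exposed to compound 48 hr, 37 C, 5% CO2 beforehand.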

[17] = target: Thioredoxin reductase 1, cytoplasmic (Rattus norvegicus) (UniProt O89049); test: qHTS Assay for Inhibitors of Mammalian Selenoprotein Thioredoxin Reductase 1 (TrxR1) (AID 488773); conditions: Potency: inhibition; note: nearly all actives have a fitted effect of over 40% in size
Method in brief: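 Steps: enzyme (90 nM) plus NADPH (400 uM final), 5 min at ~22 deg C; compound added, 15 min; selenite (400 uM final) added; fluorescence followed for 8 min. Concentration-response curves derived from the normalized delta values.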

[18] = target: Chromobox protein homolog 1 (Homo sapiens) (UniProt P83916); test: qHTS Validation Assay for Inhibitors of HP1-beta Chromodomain Interactions with Methylated Histone Tails (AID 488953); note: nearly all actives have a fitted effect of over 50% in size
Method in brief: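 HP1-beta (50 nM) was preincubated 30 min at room temperature with biotinylated H3(1-18)K9me3 peptide (50 nM) in PBS pH 7.4, 0.01% Tween-20, then with compounds 30 min. AlphaScreen signal was read after streptavidin donor/nickel chelate acceptor beads (10 ug/mL final).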

[19] = target: ATPase family AAA domain-containing protein 5 (Homo sapiens) (UniProt Q96QE3); test: Validation screen for small molecules that inhibit ELG1-dependent DNA repair in human embryonic kidney (HEK293T) cells expressing luciferase-tagged ELG1 (AID 493107); conditions: HEK293T ELG1-luciferase level, luminescence, 5-fluorouridine co-treatment, 16 h; series mostly up to 46.1 µM; note: nearly all actives have a fitted effect of over 70% in size
Method in brief: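 HEK293T cells expressing luciferase-tagged ELG1 were co-treated with 5-fluorouridine and compound or DMSO for 16 hr at 37 °C, 5% CO2. Luciferase activity was then read with ONE-Glo after 30 min at room temperature; suppressed signal indicates blocked ELG1 function.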

[20] = target: Ubiquitin carboxyl-terminal hydrolase 1 (Homo sapiens) (UniProt O94782); test: Inhibitors of USP1/UAF1: Pilot qHTS (AID 504865);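 note: rhodamine fluorescence freed from ubiquitin-rhodamine substrate followed over time; nearly all actives have a fitted effect of over 35% in size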
Method in brief: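 USP1/UAF1 complex (1nM) preincubated with compound 15 min at room temperature, then Ub-Rho substrate (150nM final) added. Fluorescence read kinetically at 480/540 nm, 6 reads every 60 seconds. Buffer: 50mM HEPES pH 7.8, 0.5mM EDTA, 0.1 mg/ml BSA, 1mM TCEP, 0.01% Tween-20.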

[21] = target: Vitamin D3 receptor (Homo sapiens) (UniProt P11473); test: qHTS for Inhibitors of the vitamin D receptor (VDR): Hit Validation using a Fluorescein Assay (AID 602200)
Method in brief: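 Compounds added to VDR ligand-binding domain (1.5 uM) with agonist LG19078 (5 uM) and 5 nM SRC2-3 fluorescein peptide, final concentrations. After 2 h at ambient temperature, polarization of fluorescein emission (Ex 495 nm/Em 520 nm) measured.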

[22] = qHTS for Inhibitors of the vitamin D receptor (VDR): Hit Validation using a Texas Red Assay (AID 602201)
Method in brief: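 After a 2-hour room-temperature incubation, polarization of Texas-Red emission was read (Ex 595 nm/Em 615 nm). Final mix contained 7 nM Texas Red, 1.5 uM VDR-LBD and LG19078.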

[23] = target: Vitamin D3 receptor (Homo sapiens) (UniProt P11473); test: qHTS for Inhibitors of the vitamin D receptor (VDR): Hit Validation using a Beta-Lactamase Assay (AID 602202)
Method in brief: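 Beta-lactamase reporter read-out (447 nm emission of cleaved FRET substrate, 2 h) after 18 h compound exposure of HEK293 cells carrying a VDR-GAL4 fusion and UAS reporter, stimulated with LG190178.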

[24] = qHTS for Inhibitors of the vitamin D receptor (VDR): Hit Validation using a Cytotoxicity Assay (AID 602204);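 note: cells co-treated with VDR agonist LG190178 at 300 nM; nearly all actives have a fitted effect of over 75% in size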
Method in brief: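 Luminescence proportional to cellular ATP reports viability. Cells (20,000 per well) rested 4 h, were treated with compounds for 18 h, then incubated 30 min with detection reagent. Controls: cycloheximide (high) and DMSO.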

[25] = target: DNA repair nuclease/redox regulator APEX1 (Homo sapiens) (UniProt P27695); test: qHTS Validation Assay for Inhibitors of the Human Apurinic/apyrimidinic Endonuclease 1 (APE1) (AID 1705)
Method in brief: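 Human APE1 was preincubated with compound for 15 min at room temperature, then 50 nM (final) THF-abasic double-stranded DNA substrate bearing 5'-TAMRA and 3'-BHQ-2 was added. Incision-driven fluorescence rise (ex 525/em 598 nm) was read kinetically.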

[26] = qHTS for differential inhibitors of proliferation of Plasmodium falciparum line GB4 (AID 1816); conditions: Potency: Plasmodium falciparum GB4 proliferation inhibition;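 note: parasite growth measured after 72 h incubation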
[27] = qHTS for differential inhibitors of proliferation of Plasmodium falciparum line D10 (AID 1877);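 note: parasites grown with compound for 72 h before DNA staining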
[28] = qHTS for differential inhibitors of proliferation of Plasmodium falciparum line Dd2 (AID 1882); conditions: Potency: Plasmodium falciparum Dd2 proliferation inhibition; note: nearly all actives have a fitted effect of over 65% in size
Method in brief: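 SYBR Green I DNA fluorescence read-out, ex 485/em 535 nm. Signals were normalized to 0.29 uM artemisinin and DMSO wells, then corrected using vehicle-only plates flanking each stack. Parasite growth ran 72 h in erythrocytes before lysis.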

[29] = qHTS for differential inhibitors of proliferation of Plasmodium falciparum line HB3 (AID 1886); conditions: Potency: Plasmodium falciparum HB3 proliferation inhibition;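 note: parasites grown with compound for 72 h before SYBR Green readout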
[30] = Quantitative high throughput screen for delayed death inhibitors of the malarial parasite plastid, 96 hour incubation (AID 488745); note: nearly all actives have a fitted effect of over 70% in size
Method in brief: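 P. falciparum carrying an integrated firefly luciferase reporter, grown in erythrocytes (2% hematocrit, 0.1% parasitemia final) in RPMI 1640/0.5% Albumax, was exposed to compound for 96 h (two generations) at 37 C, 5% CO2. Luminescence decrease indicated growth inhibition.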

Measured: Potency
Potency is the fitted concentration of half-maximal effect; tags give direction and shape of the fitted curve or compound fluorescence and quenching.

Sequence of UniProt P11473 (P11473 whole entry, looked up, the tested form may be a part): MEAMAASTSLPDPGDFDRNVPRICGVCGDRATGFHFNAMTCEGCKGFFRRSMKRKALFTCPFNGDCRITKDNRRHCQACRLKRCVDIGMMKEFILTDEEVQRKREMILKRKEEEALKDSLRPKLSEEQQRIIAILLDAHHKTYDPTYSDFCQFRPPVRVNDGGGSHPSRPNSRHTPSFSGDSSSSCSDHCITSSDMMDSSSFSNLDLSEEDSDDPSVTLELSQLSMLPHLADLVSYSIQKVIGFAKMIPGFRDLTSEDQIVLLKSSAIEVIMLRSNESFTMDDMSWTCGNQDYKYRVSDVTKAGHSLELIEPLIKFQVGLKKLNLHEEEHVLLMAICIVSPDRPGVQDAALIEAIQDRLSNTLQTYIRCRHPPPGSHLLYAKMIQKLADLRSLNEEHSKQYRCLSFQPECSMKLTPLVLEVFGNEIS
Sequence of UniProt P54132 (P54132 whole entry, looked up): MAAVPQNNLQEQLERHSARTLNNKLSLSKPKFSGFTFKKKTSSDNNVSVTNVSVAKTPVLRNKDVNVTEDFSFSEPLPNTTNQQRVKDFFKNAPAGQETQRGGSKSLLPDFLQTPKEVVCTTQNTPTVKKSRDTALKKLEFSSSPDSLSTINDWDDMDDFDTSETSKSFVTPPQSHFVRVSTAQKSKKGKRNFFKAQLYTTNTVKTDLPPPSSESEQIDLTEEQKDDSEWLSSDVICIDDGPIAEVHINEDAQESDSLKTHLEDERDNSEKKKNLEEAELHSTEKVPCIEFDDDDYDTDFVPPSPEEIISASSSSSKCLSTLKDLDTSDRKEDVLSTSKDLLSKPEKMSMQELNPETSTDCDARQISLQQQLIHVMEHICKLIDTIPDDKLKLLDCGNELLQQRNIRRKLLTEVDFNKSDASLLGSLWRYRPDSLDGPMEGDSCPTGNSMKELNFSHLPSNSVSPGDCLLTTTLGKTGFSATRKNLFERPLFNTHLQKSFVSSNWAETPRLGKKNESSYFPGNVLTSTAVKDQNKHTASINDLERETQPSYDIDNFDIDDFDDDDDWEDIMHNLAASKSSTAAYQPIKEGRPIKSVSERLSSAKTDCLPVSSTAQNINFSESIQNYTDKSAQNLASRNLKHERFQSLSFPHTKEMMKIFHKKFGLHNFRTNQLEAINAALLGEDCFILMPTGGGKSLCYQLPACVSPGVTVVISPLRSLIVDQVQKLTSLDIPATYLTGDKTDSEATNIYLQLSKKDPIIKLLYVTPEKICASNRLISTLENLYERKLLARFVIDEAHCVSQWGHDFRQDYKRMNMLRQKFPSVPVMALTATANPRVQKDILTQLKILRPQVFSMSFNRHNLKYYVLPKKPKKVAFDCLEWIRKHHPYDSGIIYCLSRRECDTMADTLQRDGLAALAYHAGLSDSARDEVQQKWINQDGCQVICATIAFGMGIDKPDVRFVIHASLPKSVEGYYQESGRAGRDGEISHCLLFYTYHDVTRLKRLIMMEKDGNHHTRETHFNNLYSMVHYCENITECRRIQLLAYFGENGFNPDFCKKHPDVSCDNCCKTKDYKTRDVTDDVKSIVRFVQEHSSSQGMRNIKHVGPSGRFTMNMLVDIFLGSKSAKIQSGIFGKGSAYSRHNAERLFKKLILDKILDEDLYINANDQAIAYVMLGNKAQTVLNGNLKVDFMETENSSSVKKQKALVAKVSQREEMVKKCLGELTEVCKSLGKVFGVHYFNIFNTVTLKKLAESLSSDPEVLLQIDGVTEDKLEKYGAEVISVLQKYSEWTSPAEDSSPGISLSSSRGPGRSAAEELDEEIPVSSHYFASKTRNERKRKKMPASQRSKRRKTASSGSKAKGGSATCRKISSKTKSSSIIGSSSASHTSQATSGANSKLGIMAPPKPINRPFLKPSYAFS
Sequence of UniProt O89049 (O89049 whole entry, looked up): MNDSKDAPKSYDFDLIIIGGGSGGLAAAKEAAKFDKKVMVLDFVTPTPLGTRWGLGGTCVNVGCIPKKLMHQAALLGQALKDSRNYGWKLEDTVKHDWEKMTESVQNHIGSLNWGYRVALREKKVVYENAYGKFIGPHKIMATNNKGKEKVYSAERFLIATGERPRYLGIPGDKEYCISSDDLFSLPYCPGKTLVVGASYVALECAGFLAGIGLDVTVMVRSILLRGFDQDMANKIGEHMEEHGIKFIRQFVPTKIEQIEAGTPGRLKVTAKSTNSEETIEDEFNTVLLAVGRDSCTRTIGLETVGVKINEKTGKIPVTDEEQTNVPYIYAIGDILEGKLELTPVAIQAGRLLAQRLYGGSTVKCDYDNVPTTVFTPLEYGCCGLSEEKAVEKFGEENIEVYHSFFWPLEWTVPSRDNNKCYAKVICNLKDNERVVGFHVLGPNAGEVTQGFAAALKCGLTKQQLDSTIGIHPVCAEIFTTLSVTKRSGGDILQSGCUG
Sequence of UniProt P83916 (P83916 whole entry, looked up): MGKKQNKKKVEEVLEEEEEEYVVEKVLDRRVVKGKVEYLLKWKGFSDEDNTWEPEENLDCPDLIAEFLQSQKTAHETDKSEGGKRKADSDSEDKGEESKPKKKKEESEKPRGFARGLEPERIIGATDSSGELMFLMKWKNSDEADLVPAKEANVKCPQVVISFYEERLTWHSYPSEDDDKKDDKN
Sequence of UniProt P02791 (P02791 whole entry, looked up): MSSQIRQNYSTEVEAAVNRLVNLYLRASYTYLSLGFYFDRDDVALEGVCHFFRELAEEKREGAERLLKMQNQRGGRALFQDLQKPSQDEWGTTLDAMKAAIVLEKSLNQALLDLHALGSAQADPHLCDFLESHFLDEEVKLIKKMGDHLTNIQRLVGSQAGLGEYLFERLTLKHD
Sequence of UniProt O94782 (O94782 whole entry, looked up): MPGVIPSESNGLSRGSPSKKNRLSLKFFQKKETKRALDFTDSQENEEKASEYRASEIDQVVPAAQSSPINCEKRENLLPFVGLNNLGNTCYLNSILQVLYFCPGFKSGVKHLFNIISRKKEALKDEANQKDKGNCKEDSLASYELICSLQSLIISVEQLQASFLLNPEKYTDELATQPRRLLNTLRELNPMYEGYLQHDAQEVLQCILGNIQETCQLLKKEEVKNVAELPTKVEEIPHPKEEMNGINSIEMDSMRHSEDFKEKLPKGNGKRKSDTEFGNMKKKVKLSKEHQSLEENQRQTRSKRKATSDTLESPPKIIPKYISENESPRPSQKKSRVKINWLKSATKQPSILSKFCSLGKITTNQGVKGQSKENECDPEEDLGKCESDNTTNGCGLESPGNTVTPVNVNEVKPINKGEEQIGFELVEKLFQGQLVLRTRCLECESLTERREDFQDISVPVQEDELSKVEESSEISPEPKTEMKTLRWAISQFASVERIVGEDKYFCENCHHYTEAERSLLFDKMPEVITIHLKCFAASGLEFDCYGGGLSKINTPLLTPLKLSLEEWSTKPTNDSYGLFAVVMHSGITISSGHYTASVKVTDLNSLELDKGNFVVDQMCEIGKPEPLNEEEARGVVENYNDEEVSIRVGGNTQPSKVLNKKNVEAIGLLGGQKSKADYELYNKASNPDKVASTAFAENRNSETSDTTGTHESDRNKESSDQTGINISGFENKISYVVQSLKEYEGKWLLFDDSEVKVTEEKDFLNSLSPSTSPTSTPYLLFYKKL
Sequence of UniProt P27695 (P27695 whole entry, looked up): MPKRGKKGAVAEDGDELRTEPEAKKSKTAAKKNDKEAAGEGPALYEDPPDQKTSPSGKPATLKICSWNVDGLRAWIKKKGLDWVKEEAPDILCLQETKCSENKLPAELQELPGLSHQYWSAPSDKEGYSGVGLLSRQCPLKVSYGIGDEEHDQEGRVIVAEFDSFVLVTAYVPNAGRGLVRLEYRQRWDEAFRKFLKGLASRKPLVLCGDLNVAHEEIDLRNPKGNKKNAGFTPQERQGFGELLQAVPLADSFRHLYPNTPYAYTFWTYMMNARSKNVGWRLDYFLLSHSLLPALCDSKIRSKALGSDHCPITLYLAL

O=c1oc(Cl)c(Cl)c2ccccc12
active: [4] 12.6 µM | [13] 18.5 µM | [16] 5.01 µM | [17] 7.52 µM | [18] 39.8 µM | [20] 12.6 µM | [24] 16.8 µM
inconclusive: [1] 6.31 µM [side channel, rising, partial curve] | [2] 31.6 µM [side channel, falling, single point] | [3] 12.6 µM [inhibitor, partial curve] | [5] 15.8 µM [inhibitor, partial curve] | [6] 17.8 µM [inhibitor, single point] | [7] 17.8 µM [inhibitor, partial curve] | [8] 4.26 µM [inhibitor, full curve] | [9] 39.8 µM [inhibitor, partial curve] | [10] 0.1 µM [inhibitor, full curve, poor fit] | [11] 16.5 µM [falling, single point] | [12] 23.3 µM [falling, single point] | [14] 26.1 µM [falling, single point] | [15] 11.2 µM [inhibitor, partial curve, poor fit] | [19] 29.1 µM [inhibitor, single point] | [21] 2.82 µM [inhibitor, partial curve, poor fit] | [22] 6.31 µM [inhibitor, full curve] | [23] 20.6 µM [inhibitor, single point]

CCC(CO)NC(=O)[C@@H]1C=C2c3cccc4[nH]cc(c34)C[C@H]2N(C)C1 (stereo partly drawn)
inconclusive: [25] 44.7 µM [inhibitor, partial curve, poor fit] | [5] 3.16 µM [inhibitor, full curve] | [26] 8.91 µM [inhibitor, partial curve] | [27] 12.6 µM [inhibitor, partial curve] | [28] 11.2 µM [inhibitor, partial curve] | [10] 12.6 µM [inhibitor, partial curve] | [30] 14.7 µM [inhibitor, partial curve, poor fit]
active: [6] 10 µM | [29] 10 µM
